In the supplement of paper PMC10126150:
Values marked as one replicate rest on one cluster of the flow cell; about a third of the high ones do not repeat.

What follows are sequences tested on ATP (assay: switch fluorescence ratio, 500 uM ATP over buffer (Cy3 cluster intensity, sum of 5 cycles each) (fold (ratio)); higher = stronger signal-on switching upon ATP binding; sequences stand for … in TCGTCGGCAGCGTCAGATGTGTATAAGAGACAGTTTTTTTTTTTTTTTTTTTTTTTTT…TC). Settings: aptamer strand: ATP DNA aptamer (quencher-CACCTGGGGGAGTATTGCGGAGGAAGG + anchor), 100 nM annealed; ATP concentration: 500 uM; one replicate.
Outline: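 Five buffer/ATP imaging cycles were run on Cy3-labelled switching-strand clusters on a modified Illumina MiSeq flow-cell, with NaOH stripping and re-annealing between cycles. In each cycle, clusters annealed to 100 nM quencher-labelled ATP aptamer were imaged in selection buffer, then after 15 min with 500 uM ATP at 22 °C. Per cluster, the fluorescence ratio is summed target-cycle over summed buffer-cycle Cy3 intensity, averaged per switch-domain sequence. Only clusters within 100-1000 RFU were kept.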
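Also: ATP exposure 15 min at 22 °C before imaging.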

Sequence	switch fluorescence ratio
GTTCTATTGT	1.01
TACATGGGAC	0.996
TACGTGTCGC	1.02
AAGATAACAT	1.01
AAGAGTTATT	1.02
TCAAAAGTTT	1.01
CGCTTCATAG	1.17
GGCTGGGCTA	0.998
TGAATAGCAA	1.61
AGCGCGTTCG	0.98
ATGGAGAAAA	1.01
ACCAGTCTT	0.953
TTCACATCTC	0.947
TTTAGTGCAA	1
GCGATCTTTA	1.01
TGCAGGATAG	1.01
AATTGACAGT	1.06
GCTTCAACAT	1.03
CATATATAAG	0.997
CCGGTTTAGG	0.973
TTCATAAAAG	1
GTGAGGCATC	0.946
CTTTCAGAGG	0.996
TTTATAGTG	1.03
AGATTTCCTG	0.955

Sequence	switch fluorescence ratio
AGGAACGGAG	1.01
GGACAAGGG	1.03
GTAGGGCGTT	1.02
TTGGCGGTTT	1.01
TGATCGTTCA	0.99
TGACGAGGTA	1.01
CTTCAGTGCT	0.995
TTATTGGAGT	1.2
CGGATCCGCG	1.01
TCAGTTTGAA	1
TTTCTATTTA	1.03
TTGCCTAGGC	1.06
TACTAGTGGC	1.08
GCCACGAAAT	1.06
AGGGCGCTTC	1.03
CACGCGATCA	1.46
TCATCTCACG	1.09
TGACGTACGC	1.98
ATGGGGGCTC	0.982
GGTAGCTGAC	1.26
TAAGAAGAAA	1.01
TGAGTAGTGT	0.995
GGCCTTTTGC	0.969
TATAAAGAAA	1.03
GTAAATAGTA	0.984

Sequence	switch fluorescence ratio
TAGCTGGTGG	0.907
TATGTTCCCA	0.981
CGCGCTTGCC	1.03
AACCCAAATT	1.03
TGTGTCGGAT	1.04
GGTCCAGCGC	0.972
CAGTGTTCGC	1.02
CGTTGGGAGA	0.973
TACCAAACCT	2.55
GTTGCGAAGA	1.03
TTTGTTTAC	1.02
GGGTTTCATA	0.968
TTATTGAGAG	1.01
GTAAAAAAGG	1.01
TCTTACTTGC	1.01
TTTCAATACG	2.4
CTGAGTAACA	1.03
GGCGTCCCGC	0.999
CTCCAGTGCC	1.49
CGGAGGGAAG	1.03
GATGGGGCCA	0.969
GAACTTAGCG	0.938
GGTTTCAGGC	0.973
CAGCAACGCT	1.02
TTTGCGCCG	0.968

Sequence	switch fluorescence ratio
TCGTTTACTG	0.957
CATCGTCATT	1.05
GATTGGCTGC	0.944
GGTCACCTAC	1.2
GCGCTTTCCT	1.59
GGTCAGCTCG	0.969
GATCTTCCGG	1.09
ATTTGTCATG	0.987
TACTGAAGCC	1.08
CACTCCAAAA	2.1
TCGGCGTGTG	1.06
GCAGTGAGCC	1.03
CGGTCGATCA	1.01
TAACACGCAA	3.29
CAAGAAGAGC	1.01
GTTTTACCTT	1.11
GGAACTTAC	2.3
ACCAAATCCG	1.35
CCCCCTCAG	1.17
TCTGATGATA	1.01
TCTATTGGGG	0.971
TTCAAACTCG	1.05
GCAGGACCCC	1.22
AACCAAATTT	1.08
CTCACAACGG	1.02

Sequence	switch fluorescence ratio
GTTACTTCGC	1.59
GTGCAGCGTA	1.02
CGGCTTTAAA	0.981
GCGTATATGG	1.01
TCTTTCGACG	1.8
CCCGGAACTT	1.01
GACGGACTCC	1.5
CGGCTAGATG	0.968
TTCCACGAAA	0.997
ATTCTAATAA	1.01
ACCTGGGTCC	1.04
TCACTAATTG	0.968
GCCAATGCAG	0.968
CAGGATAGTA	1.06
AAATCCGAGA	1.05
ATGAACATTA	0.981
TGCGTTCCTC	2.08
CTCTGAGTCA	1.02
ACCGGGAAGC	1.03
CATGATGAAC	0.93
AACCCTAATG	1.03
TCAGAACGCG	1.03
AGAAACTGGT	1.06
GGAAGGCTC	0.998
GGGCAGCGTA	1.01

Sequence	switch fluorescence ratio
AGGTAATGA	0.992
CTGTTTCGTT	1
CTCAGGGCGC	1
AAGGATATT	0.969
TGCATGGGCA	0.989
GAGGTACCTA	1.01
GTATGTAGTC	0.99
AAGGCCTAGT	0.982
TGCCCTCATA	0.962
CGGGGACGCT	0.971
AAGTAGCATT	0.964
ACGCACACGA	1.5
ATATCGTTAA	0.976
AATGTAAAGC	0.992
TATGATGCT	0.949
TGAGAGGTTG	0.97
GCCACCCTGC	1.05
GGTAAAGTGT	0.959
TTAATCCAG	1.05
ATAAGATCCG	1
AGTCAGTTCT	0.972
TGACGCAGCA	4.25
TGAGTCAACG	1.02
AGAGTGCAGG	0.995
GTTACCATTG	1.03

Sequence	switch fluorescence ratio
ACCTTAGTTG	1.06
AATATGAA	0.984
TCGGGCCGTC	1.02
TGGCCAGAAA	1.05
CGAAAGCTGG	0.978
AAGGCCCGGT	0.987
GGCGTCCTAA	0.987
TACTCCGGGG	1.31
AGCGCCGTCC	1.02
ATGATTGGGT	0.98
TTTCGCCGGT	1.02
GGAACGGGTT	1.01
TGTTTTGTAA	0.946
TTACGGCTCC	1.03
ATCGCATTAA	1.78
ATCACCGGGC	1.07
ACGTACTTCT	1.51
GCTCGGCTTG	0.988
GAATGTGGAG	0.996
CGATATGCCC	0.992
TTGCTCTAGA	0.963
AAATTAGATT	0.987
ATCGATGTGG	1
CAAGCATTAT	1.47
ACTTAAGAT	1.03

Sequence	switch fluorescence ratio
ATTACATGAG	1.04
TGAGCGCTTG	1.03
AACCAATTTG	0.922
TCTGGGCTAC	3.77
CTCAATGGTT	1.01
ACCGATGGTT	0.977
AGGTTGTCGC	1.03
GAGAAACGGG	0.991
TGGCGCCGCC	0.987
ACCTAGGTCG	0.986
ATCCATGTCG	1.03
TAACTCCTGC	1.08
ATTGGTGCCG	0.904
TCTTTTTAGA	1.02
CCGGATTAGG	0.995
TCGATTTTTC	1.1
GTCCGGCAAG	1.07
ACATGCCTTT	1.08
CCGACTCTGA	1.66
TGATAGAAAT	1.01
TACGACCCAT	1.45
TCCATCGGTC	1.02
TTGCAGCAAG	1.52
AGCAACTTAG	1.06
TCTTGAACAT	0.996
